{"source": "PubChem BioAssay AID1963576", "about": "(National Center for Advancing Translational Sciences (NCATS), 2024)", "note": "The campaign covered roughly 46,000 compounds. About 60 (0.1%) were called active. Not shown: some 3% with an inconclusive outcome. The call rests on the fitted dose curve; in most records, active means well fitted inhibition curve with a large enough effect; inconclusive means small, poorly fitted or top-dose-only effect; inactive means no such curve, though single readings can be large or run the other way. The list shows a part of the results."}
{"test": "Primary qHTS assay for Inhibitors of ovarian cancer metastasis using an organotypic tumor microenvironment (TME) model; further: nearly all actives have a fitted effect of over 65% in size;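 on activity change, negative = inhibition: plate controls were DMSO wells for no effect and tomatine positive control wells for full effect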.", "conditions": "SKOV3ip1-GFP adhesion/invasion on 3D omental model, fluorescence; series mostly up to 45.8 µM; activity change, negative = inhibition: at the top concentration", "procedure,_shortened": "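A 3D layer of primary human omental fibroblasts, mesothelial cells, fibronectin and collagen I, grown 48 hr, received SKOV3ip1-GFP cells in serum-free medium plus compounds at 0.36-46 umol/L. After 2 hr RT and 16 hr 37 C, fixed adherent GFP cells were counted; normalized to DMSO and tomatine.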"}
{"molecule": "O=C(CSc1nc2ccsc2c(=O)n1-c1ccc(Br)cc1)NCc1ccccc1", "activity change, negative = inhibition": "inactive: -3.89%"}
{"molecule": "CCc1cccc(C)c1NC(=O)CCCn1nc(C)c2sc3ccccc3c2c1=O", "activity change, negative = inhibition": "inactive: 23.3%"}
{"molecule": "Cc1cc(N2CCCCC2)nc2ccc(NC(=O)/C=C/c3ccc(OCCC(C)C)cc3)cc12", "activity change, negative = inhibition": "inactive: 2.52%"}
{"molecule": "Cc1ccccc1Cn1cnc2nc3c(cc2c1=O)CC(C)CC3", "note": "(stereo not given)", "activity change, negative = inhibition": "inactive: -8.69%"}
{"molecule": "CCc1cccc(C)c1NC(=O)CCCN1C(=O)C(c2ccccc2)Oc2cccnc21", "note": "(stereo not given)", "outcome": "inactive"}
{"molecule": "CC1CCN(c2ccc(-c3nc(-c4ccccc4)no3)cc2[N+](=O)[O-])CC1", "activity change, negative = inhibition": "inactive: -3.11%"}
{"molecule": "COc1ccc(NC(=O)NCCn2nnc3cc(S(=O)(=O)N(C)C)ccc32)cc1", "activity change, negative = inhibition": "inactive: -25.4%"}
{"molecule": "CCOC(=O)c1c(C)[nH]c(C)c1S(=O)(=O)N(C)CC(=O)NCc1cccc(Br)c1", "activity change, negative = inhibition": "inactive: 0.987%"}
{"molecule": "O=C(NCc1nc2ccccc2[nH]1)c1cccc(Cl)c1", "activity change, negative = inhibition": "inactive: 2.11%"}
{"molecule": "O=C(Cn1c(=O)c2ccccc2n2nncc12)Nc1cccc(F)c1", "outcome": "inactive"}
{"molecule": "COCCCNC(=O)c1ccc2c(c1)nc1n2CCCCC1", "activity change, negative = inhibition": "inactive: -8.09%"}
{"molecule": "Cc1ccc(NC(=O)Cn2cc3c(n2)CCCC3)c(C)c1", "activity change, negative = inhibition": "inactive: 11.1%"}
{"molecule": "COc1ccc(NC(=O)CSc2nc(-c3cccs3)cc(C(F)(F)F)n2)c(OC)c1", "activity change, negative = inhibition": "inactive: 8.58%"}
{"molecule": "O=C(NC1CCCCC1)c1ccc(CSc2nc3ccncc3n2Cc2ccccc2F)cc1", "activity change, negative = inhibition": "inactive: -36.1%"}
{"molecule": "Cc1ccc(Cl)cc1NC(=O)CCn1c(=O)c2cccn2c2cccnc21", "activity change, negative = inhibition": "inactive: 2.92%"}
{"molecule": "CCOc1ccc2nc(N3CCC(C(=O)Nc4cc(C)ccc4C)CC3)sc2c1", "activity change, negative = inhibition": "inactive: -1.01%"}
{"molecule": "Cc1noc(Cn2c(=O)c3cc4c(cc3n(CC(=O)Nc3ccccc3F)c2=O)OCO4)n1", "activity change, negative = inhibition": "inactive: 0.382%"}
{"molecule": "Oc1c(C(c2ccccc2Cl)N2CCN(Cc3ccccc3)CC2)sc2nc(-c3ccco3)nn12", "note": "(stereo not given)", "activity change, negative = inhibition": "inactive: -5.84%"}
{"molecule": "CCc1ccc(NC(=O)CSc2ccc(-c3cccs3)nn2)cc1", "activity change, negative = inhibition": "inactive: -12.5%"}
{"molecule": "O=C(CSCc1cnn(-c2ccccc2)c1-n1cccc1)NCc1ccc(F)cc1", "activity change, negative = inhibition": "inactive: 3.66%"}
{"molecule": "CCN(CC)CCCNC(=O)CSc1nc(-c2ccc(OC)cc2)cc(C(F)(F)F)n1", "activity change, negative = inhibition": "inactive: -9.32%"}
{"molecule": "Cc1nc(N2CCCC2)c2c(C(=O)Nc3ccc(Br)cc3F)c(C)oc2n1", "outcome": "inactive"}
{"molecule": "CCOc1ccc(NC(=O)c2ccc3snnc3c2)cc1", "activity change, negative = inhibition": "inactive: -12.5%"}
{"molecule": "CCOC(=O)c1cnc2ccc(OCC)cc2c1N1CCN(c2ccccc2F)CC1", "activity change, negative = inhibition": "inactive: 7.89%"}
{"molecule": "CCOC(=O)C1CCC(CN(Cc2ccc(OC)cc2)S(=O)(=O)c2ccc(F)c(C(=O)Nc3cc(C)ccc3C)c2)CC1", "note": "(stereo not given)", "outcome": "inactive"}
{"molecule": "FC(F)(F)c1cc(-c2cccc(Br)c2)nc2ncnn12", "activity change, negative = inhibition": "inactive: 31.1%"}
{"molecule": "CCOC(=O)c1ccc(CN(Cc2ccccc2)S(=O)(=O)c2ccc(Cl)cc2)cc1", "activity change, negative = inhibition": "inactive: 1.28%"}
{"molecule": "Cc1cccc(-c2nc(CSc3nncn4c3cc3sccc34)c(C)o2)c1", "activity change, negative = inhibition": "inactive: 8.51%"}
{"molecule": "CC(C)Oc1ccc(CNC(=O)C2CCN(C(=O)N3CC(C)Oc4ccccc43)CC2)cc1", "note": "(stereo not given)", "outcome": "inactive"}
{"molecule": "CC(=O)c1cc(-c2ccccc2)n(CC(=O)NCCc2ccc(C)cc2)c1C", "outcome": "inactive"}
{"molecule": "CC(C)NC(=O)C1CCC(Cn2c(=O)c3sccc3n(CC(=O)Nc3ccccc3)c2=O)CC1", "note": "(stereo not given)", "activity change, negative = inhibition": "inactive: -1.91%"}
{"molecule": "COc1ccc(-c2csc3nc(-c4ccccc4)oc(=O)c23)cc1OC", "outcome": "inactive"}
{"molecule": "CCOC(=O)c1c(Nc2cccc(C(=O)OC)c2)nnc(-c2ccccc2)c1-c1ccccc1", "outcome": "inactive"}
{"molecule": "CCOc1ccccc1-c1noc(CSc2nnc(-c3ccccc3)n2-c2cccc(C)c2)n1", "activity change, negative = inhibition": "inactive: -4.26%"}
{"molecule": "C[C@@H]1C[C@H]2[C@@H]3CCC4=CC(=O)C=C[C@]4(C)[C@@]3(Cl)[C@@H](O)C[C@]2(C)[C@@]1(OC(=O)c1ccco1)C(=O)CCl", "activity change, negative = inhibition": "inactive: 17.6%"}
{"molecule": "CCOc1ccc(NC(=O)c2ccc3c(SCC(=O)O)c4c(nc3c2)CCC4)cc1", "activity change, negative = inhibition": "inactive: -1.45%"}
{"molecule": "COc1cc(-c2nc3ccccn3c2Nc2ccccc2C)ccc1O", "activity change, negative = inhibition": "inactive: -18.9%"}
{"molecule": "CCOc1ccccc1NC(=O)COC(=O)c1cn(CC)c2nc(C)ccc2c1=O", "activity change, negative = inhibition": "inactive: 9.89%"}
{"molecule": "O=C(Nc1cccc(C(F)(F)F)c1)N1CCC(CN2CCCCCC2)CC1", "outcome": "inactive"}
{"molecule": "COc1ccccc1NC(=O)N1CCN(c2nnc(C)c3c(C)n(-c4ccc(Cl)cc4)nc23)CC1", "outcome": "inactive"}
{"molecule": "CCOc1ccc(S(=O)(=O)NCC(c2ccco2)S(=O)(=O)c2ccc(C)cc2)cc1", "note": "(stereo not given)", "activity change, negative = inhibition": "inactive: -1.46%"}
{"molecule": "COc1ccc(Nc2cc(C(=O)NCCCN(C)Cc3ccccc3)c3ccccc3n2)c(OC)c1", "activity change, negative = inhibition": "inactive: -26.2%"}
{"molecule": "COc1ccccc1C(=O)Nc1ccc(NC(=O)c2cccs2)cc1", "activity change, negative = inhibition": "inactive: -9.74%"}
{"molecule": "CC1CCN(c2cc3c(cc2F)c(=O)c(S(=O)(=O)c2cccc(Cl)c2)cn3Cc2ccccc2)CC1", "activity change, negative = inhibition": "inactive: -3.06%"}
{"molecule": "COc1ccccc1CNS(=O)(=O)c1ccc(-c2cc(C(F)(F)F)on2)s1", "activity change, negative = inhibition": "inactive: 6.14%"}
{"molecule": "COc1ccc(CC(=O)NCCc2sc(-c3ccc(Cl)cc3)nc2C)cc1OC", "outcome": "inactive"}
{"molecule": "CC1CCc2c(sc(NC(=O)Cn3nnc(-c4ccc(C(F)(F)F)cc4)n3)c2C#N)C1", "note": "(stereo not given)", "activity change, negative = inhibition": "inactive: 12.6%"}
{"molecule": "COc1ccc(C2=C(C(C)=O)Sc3nnc(-c4ccc(C)cc4)n3N2C(C)=O)cc1OC", "activity change, negative = inhibition": "inactive: -11.3%"}
{"molecule": "COc1ccc(NC(=O)C(=O)NCCc2sc(-c3ccc(Cl)cc3)nc2C)cc1", "activity change, negative = inhibition": "inactive: 4.95%"}
{"molecule": "Cn1nc(-c2ccccc2F)c2cc(C(=O)NCc3ccc(Cl)cc3)sc21", "activity change, negative = inhibition": "inactive: 2.77%"}
{"molecule": "O=C(Cc1ccc(NC(=O)N2CCCCc3ccccc32)cc1)NCc1ccccc1Br", "activity change, negative = inhibition": "inactive: 6.05%"}
{"molecule": "Cc1cccc(CCNC(=O)C2CCC(CNS(=O)(=O)c3c(C)cc(C)cc3C)CC2)c1", "note": "(stereo not given)", "activity change, negative = inhibition": "inactive: 22.4%"}
{"molecule": "COc1cc(Cl)c(C)cc1NC(=O)Cn1cc(S(=O)(=O)N2CCN(c3ccccc3F)CC2)c2ccccc2c1=O", "activity change, negative = inhibition": "inactive: 9.54%"}
{"molecule": "CCc1ccc(NC(=O)CSc2nc3n[nH]c(C)c3c(=N)n2-c2ccc(C)cc2)cc1", "activity change, negative = inhibition": "inactive: -33.3%"}
{"molecule": "O=C(NCc1ccc(F)cc1)c1c2c(nc3ccccc13)C(=O)N(C1CCCCC1)C2", "activity change, negative = inhibition": "inactive: -16.6%"}
{"molecule": "COc1ccccc1CNc1ccc(-c2nc(-c3ccccn3)no2)cc1[N+](=O)[O-]", "activity change, negative = inhibition": "inactive: -2.34%"}
{"molecule": "COc1ccc(OC)c(NC(=O)CCNS(=O)(=O)c2cccc3nsnc23)c1", "outcome": "inactive"}
{"molecule": "Cc1ccc(NC(=O)CN(C)S(=O)(=O)c2ccc3c(c2)n(C)c(=O)c(=O)n3C)c(C)c1", "activity change, negative = inhibition": "inactive: 3.96%"}
{"molecule": "O=C(CCC1N=C2c3ccccc3N=C(SCC(=O)Nc3ccccc3F)N2C1=O)NCc1ccco1", "note": "(stereo not given)", "activity change, negative = inhibition": "inactive: -0.919%"}
{"molecule": "Cc1cccc(NS(=O)(=O)c2ccc3[nH]c(=O)[nH]c3c2)c1C", "activity change, negative = inhibition": "inactive: -1.65%"}
